In all, about 150,000 compounds went through this assay and about 540 (0.36%) showed an effect of 50% or more. This is one part of the list.

42 molecules from ChEMBL document CHEMBL4888484, “Replenishing the malaria drug discovery pipeline: Screening and hit evaluation of the MMV Hit Generation Library 1 (HGL1) against asexual blood stage Plasmodium falciparum ,using a nano luciferase reporter read-out” (2022) can be followed below.

The test system of this assay is Plasmodium falciparum. Description: Primary screen in NF54 nanoGlo assay, in single point, at 2uM, 72h; a lower Z score goes with more inhibition. It counts as functional, Erythrocyte. Particulars: timepoint 72 hour.
A word on the % Inhibition: it is the relative decrease from the control value, in per cent. As to `O=C(c1ccc(-c2cc(O)c(F)c(F)c2)cc1)N1C[C@H]2CCC[C@@H](C2)C1`, the “% Inhibition” value is listed as -12% and the Z score was found to be 1.62.
The like results for `CCOc1ccc(NC(=O)C2[C@@H]3C=C[C@]4(O3)C(C(=O)NC3CCCCC3C)N(C3CCCCC3)C(=O)[C@H]24)cc1` (some centres undefined) were, in that order, 2% and -0.36.
The like results for `Cc1noc(C)c1Cc1nc(Cc2cccs2)no1` were, in that order, -12% and 1.1.
For `CC(=O)c1ccc(C(C)(C)C)cc1NC(=O)C(C)C` the same measures were 34% and -0.76.
Regarding `Cc1[nH]ccc1C(=O)Nc1cnn(C(F)F)c1`, the “% Inhibition” value was -8% and the Z score is 1.36.
For `CC(C)OCC(=O)N1CCC2(CC1)CC(=O)N(Cc1ccc(F)c(F)c1)C2` the same measures were -15% and 1.85.
For `O=C(NC(Cc1ccncc1)[C@H]1C[C@@H](O)C1)c1cnc[nH]c1=O` (some centres undefined) the same measures were -6% and 0.98.
For `CCNC(=O)C[C@H]1CCc2nn(Cc3cccnc3)c(=O)n2CC1` the same measures were 10% and -1.57.
Regarding `CS(=O)(=O)N[C@H]1CCN(C(=O)c2c[nH]nc2-c2ccc(Cl)s2)C1`, the “% Inhibition” value was 3% and the Z score is -0.46.
For `C[C@@H](CNCCCN1CCOCC1)c1ccccc1` the same measures were -21% and 1.94.
In the case of `O=C(c1ccc(=O)[nH]c1)N1CCC[C@H](Oc2ccncc2)C1`, the “% Inhibition” value was found to be 7% and the Z score is reported as -0.99.
The like results for `Cn1nc(-c2cnccn2)cc1CNC(=O)NC(C)(C)C` were, in that order, -6% and 1.03.
Regarding `CC1CN(CCC2Oc3cccnc3NC2=O)CC(C)O1` (centres undefined), the “% Inhibition” value is given as -12% and the Z score is on record as 1.4.
For `CCN(C(C)=O)c1nc(-c2ccc(C3CCCCC3)cc2)cs1` the same measures were -8% and 1.23.
The like results for `NC(=O)c1cnc2n1CCN(C(=O)Cc1cccs1)C2` were, in that order, 4% and -0.76.
For `CC(=O)Nc1ccc(C)cc1S(=O)(=O)N1CCC[C@H]1c1cc(C)on1` the same measures were -3% and 0.54.
Consider `C[C@@H](C(=O)N(C)C)N1CCc2[nH]nc(C(c3ccccc3)c3ccccc3)c2C1`, for which the “% Inhibition” value amounted to 2% and the Z score is -0.37.
For `CCC(CC)C(=O)N[C@H]1CO[C@H]2[C@@H]1OC[C@H]2O` the same measures were 22% and -3.38.
For `c1ccc(C[C@]2(c3ccccc3)CCNC2)cc1` the same measures were 38% and -1.06.
Regarding `O=C(Cn1ncc(=O)c2ccccc21)Nc1ccc(Cl)cc1`, the “% Inhibition” value is on record as -13% and the Z score is listed as 2.42.
Turning to `Cc1nc([C@H](C)N2CCN(C(=O)C(C)(C)C)CC2)oc1-c1ccc(Cl)cc1`, the “% Inhibition” value is reported as -2% and the Z score was determined as 0.22.
On to `CN(C)c1cccc(S(=O)(=O)Nc2ccc(N(C)C)nc2)c1`, for which the “% Inhibition” value is listed as -3% and the Z score is listed as 0.42.
The like results for `CCOc1ccccc1C(=O)Nc1nnc(CCC(=O)c2ccccc2)s1` were, in that order, -15% and 1.97.
For `CO[C@H]1C[C@H]2CN(C(=O)c3c[nH]c4ccccc34)CC(=O)N2C1` the same measures were 0% and -0.02.
Turning to `Cc1ccc(-c2cc3nc(C)cc(N4CCC(C(=O)N[C@@H](C)c5ccccc5)CC4)n3n2)cc1`, the “% Inhibition” value is listed as 6% and the Z score is -0.69.
For `CC(=O)N1CC[C@H](NC(=O)c2ccc3c(c2O)CCCC3)c2ccc(F)cc2C1`, the “% Inhibition” value is recorded as -4% and the Z score is 0.48.
The like results for `CCCc1nnc(NC(=O)c2cnn(-c3ccc(=O)[nH]n3)c2C(F)(F)F)s1` were, in that order, -2% and 0.38.
`CCOc1ccc(NC(=O)Nc2cc(S(=O)(=O)N3CCC(C)CC3)ccc2N2CCC(C)CC2)cc1`: the “% Inhibition” value was -7% and the Z score came out at 1.2.
Turning to `Cc1ccc2c(c1)OCCN2Cc1cnc2cnccn12`, the “% Inhibition” value was -13% and the Z score was 2.39.
As for `Cc1ccc(F)c(OCC2=NOCC2)c1`, the “% Inhibition” value was -9% and the Z score is listed as 1.84.
In the case of `CCc1cc(CNC(=O)Nc2cc(NC(C)=O)c(F)cc2F)on1`, the “% Inhibition” value is given as -7% and the Z score was 1.19.
Consider `C[C@@H](CO)NC(=O)C(=O)Nc1cc(Br)ccc1F`, for which the “% Inhibition” value is -9% and the Z score was 1.52.
`CCn1c(C2CCNCC2)nn(Cc2noc(C3CC3)n2)c1=O`: the “% Inhibition” value worked out at 4% and the Z score is listed as -0.69.
Take `CC1CCCCC1OCC(=O)N(C)CC1CCCC1` (centres undefined): the “% Inhibition” value is recorded as -2% and the Z score stood at 0.47.
On to `Fc1cccc(C2(c3nc([C@H]4CCOC4)no3)CCC2)c1`, for which the “% Inhibition” value is -6% and the Z score is 0.6.
For `Cc1cc(C(=O)CN2C(=O)COc3ccc(Cl)cc32)c(C)n1C`, the “% Inhibition” value is 0% and the Z score is on record as -0.05.
For `COc1ccnc(C(=O)Nc2cc(C)c(Br)cn2)c1` the same measures were -7% and 1.08.
For `COCCCN(Cc1c(C)nn(-c2cccc(F)c2)c1N1CCN(C)CC1)C(=O)CC(C)(C)C`, the “% Inhibition” value is listed as 14% and the Z score was -1.58.
Consider `Cc1cccc(NS(=O)(=O)c2ccc(C)c(C(=O)Nc3ccc(C)c(S(=O)(=O)Nc4ccccc4Cl)c3)c2)c1`, for which the “% Inhibition” value is reported as -9% and the Z score was 1.45.
The like results for `COc1ccc([C@H]2CCc3nc(C(=O)NCc4ccccc4)cn3C2)c(OC)c1` were, in that order, -6% and 0.59.
On to `COC(=O)c1cc(C)nc2c1c(=O)n(Cc1c(F)cccc1Cl)c(=O)n2-c1ccccc1OC`, for which the “% Inhibition” value is listed as -1% and the Z score was found to be 0.09.
As for `CC1CCCCC1NC(=O)C1CCc2cncn2C1` (centres undefined), the “% Inhibition” value is on record as -11% and the Z score amounted to 1.42.
